Results from PubChem BioAssay (NCI).
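Step 1: Grow cells in 96-well plates. Step 2: Expose to compound for 48 hours at 5 concentrations. Step 3: Interpolate endpoints linearly; if unreached, use highest concentration. GI50 marks 50% less growth.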 Some entries of the source have several records that differ or are many. This list holds those alone. There may be further records. For some of these results: The tests behind the records often covered other concentration ranges, which the source does not state; a value can be the end of its range. For some of these results: The values listed for one entry repeat one measurement across runs, samples, wells, individuals or studies. Brackets tell where a record comes from. The letters are not those of the source and start again with each entry.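 TGI denotes the concentration required for complete inhibition of growth.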

How the values were obtained:
Experiment in all cases: NCI anticancer screen, dose series, 48 h
EKVX NSCLC = tested on: EKVX NSCLC
SK-MEL-5 melanoma = tested on: SK-MEL-5 melanoma
MALME-3M melanoma = tested on: MALME-3M melanoma
UO-31 renal = tested on: UO-31 renal
UACC-257 melanoma = tested on: UACC-257 melanoma
SK-MEL-2 melanoma = tested on: SK-MEL-2 melanoma
A498 renal = tested on: A498 renal
LOX IMVI melanoma = tested on: LOX IMVI melanoma
SF-539 CNS = tested on: SF-539 CNS
RPMI-8226 leukemia = tested on: RPMI-8226 leukemia
HCC-2998 colon = tested on: HCC-2998 colon
HCT-116 colon = tested on: HCT-116 colon
OVCAR-4 ovarian = tested on: OVCAR-4 ovarian
MCF7 breast = tested on: MCF7 breast
CAKI-1 renal = tested on: CAKI-1 renal
NCI-H226 lung = tested on: NCI-H226 lung
A549 NSCLC = tested on: A549 NSCLC
M14 melanoma = tested on: M14 melanoma
OVCAR-3 ovarian = tested on: OVCAR-3 ovarian
NCI-H23 lung = tested on: NCI-H23 lung
SNB-75 CNS = tested on: SNB-75 CNS

`CC(C)CCCCCCCCCCCCC(=O)NCC(=O)NC1C(C)OC(Nc2ncnc3nc[nH]c23)C(O)C1O` (configuration not stated) was tested, and the TGI (EKVX NSCLC) was 971 nM and 20.1 nM, the TGI (SK-MEL-5 melanoma) was 9.11 nM and 110 nM and the TGI (MALME-3M melanoma) was 4.96 nM and 72.4 nM. For the same molecule, the TGI (UO-31 renal) was 4.68 nM and 606 nM, the GI50 (UACC-257 melanoma) was 3 nM and 31.6 nM and the TGI (SK-MEL-2 melanoma) was 86.8 nM and 1.08 µM. For the same molecule, the GI50 (A498 renal) was 1.15 nM and 42.4 nM, the TGI (LOX IMVI melanoma) was 6.85 nM and 137 nM and the TGI (SF-539 CNS) was 5.33 nM and 215 nM. The TGI (RPMI-8226 leukemia) was 7.13 nM and 15.5 µM, the TGI (HCC-2998 colon) was 6.19 nM and 247 nM and the TGI (HCT-116 colon) was 8.94 nM, 132 nM, < 17.5 nM.

With `CN[C@@H](Cc1cccc2ccccc12)C(=O)N[C@@H](CC(C)C)B(O)O` the TGI (OVCAR-4 ovarian) was 126 nM and > 100 µM and the TGI (MCF7 breast) was 222 nM and > 100 µM.

With `O=C(Nc1cn[nH]c1-c1nc2ccc(CN3CCOCC3)cc2[nH]1)NC1CC1` the GI50 (CAKI-1 renal) was 891 nM [sample A, mean of 2 tests] and > 10 µM [sample B, 1 test], the TGI (NCI-H226 lung) was 733 nM [sample A, mean of 2 tests] and 8.74 µM [sample B, 1 test] and the GI50 (A549 NSCLC) was 310 nM [sample A, mean of 2 tests] and > 10 µM [sample B, 1 test].

In the case of `COc1ccc(-c2oc3c(OC)c(OC)c(OC)c(O)c3c(=O)c2OC)cc1O`, the TGI (M14 melanoma) is reported as 396 nM and 31 µM, the TGI (OVCAR-3 ovarian) is reported as 296 nM and < 10 nM and the TGI (NCI-H23 lung) is reported as 611 nM and 30.1 µM.

For `CC[C@@]1(O)C[C@H](OC2CC(N(C)C)C(OC3CC(O)C(OC4CCC(=O)C(C)O4)C(C)O3)C(C)O2)c2c(cc3c(c2O)C(=O)c2c(O)cccc2C3=O)C1C(=O)OC` (some centres not stated), the TGI (NCI-H226 lung) was 132 nM and 1.76 µM and the TGI (SNB-75 CNS) was 145 nM [1 test] and 2.03 µM [mean of 2 tests].
